Measured values as given in PubChem BioAssay (Tox21).
Where “and” joins values, the source holds several entries; their conditions need not be identical. Equal entries are not always repeated. Inconclusive results, whose numbers are uncertain, are shown with a selection of clear calls. For some assays here: Where the call is inconclusive, the potency comes from a doubtful curve fit. The source holds several records for some structures; these can differ, active in one and inactive in another. Calls of active or inactive are those of the source. Unless noted, the call rests on the fitted dose curve; in most records, active means well fitted curve in the direction sought with a large enough effect in the repeat runs; inconclusive means weak or mixed curves; inactive means no such curve, though single readings can be large; an effect the other way counts as inactive or inconclusive.

Tests used:
[1] = qHTS assay to identify small molecule antagonists of the estrogen receptor alpha (ER-alpha) signaling pathway using the BG1 cell line in the presence of 0.1 nM 17-beta-estradiol - cell viability counter screen (AID 1259241); further: nearly all actives have a fitted effect of over 40% in size; further: potency means the concentration at half of the fitted maximal effect
Method in brief: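 Following 5 days in phenol red-free medium with charcoal-stripped serum, VM7Luc4E2 cells received test compounds alongside 0.1 nM 17beta-estradiol (final) at 37C for 22 hr. Live cells were then quantified via protease-substrate fluorescence.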

[2] = qHTS assay to identify small molecule antagonists of the sonic hedgehog signaling (Shh) pathway (AID 1259369; calls by dose curve; further: nearly all actives have a fitted effect of over 45% in size; further: potency means the concentration at half of the fitted maximal effect)
Method in brief: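 Antagonist mode: compound added to 3T3 Gli1-Luc cells followed by conditioned-medium stimulation, 24 h at 37 C, 5% CO2. Inhibition taken as loss of Gli1-driven luciferase luminescence.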

[3] = qHTS assay to identify small molecule antagonists of the androgen receptor (AR) signaling pathway using the MDA cell line in the presence of 0.5 nM R1881 - cell viability counter screen (AID 1259242); further: on the % scale 0 is the no-effect control and ±100 the full control effect; nearly all actives have a fitted effect of over 45% in size
Method in brief: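 Live-cell protease activity was measured by CellTiter-Fluor fluorescence after 30 min. Before that, MDA-kb2 MMTV-luciferase cells had 16 hr at 37C without CO2, exposed to test compounds and 0.5 nM R1881 final.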

[4] = target: Estrogen receptor (Homo sapiens) (UniProt P03372); assay: qHTS assay to identify small molecule antagonists of the estrogen receptor alpha (ER-alpha) signaling pathway using the BG1 cell line in the presence of 0.1 nM 17-beta-estradiol (AID 1259244); further: potency means the concentration at half of the fitted maximal effect; nearly all actives have a fitted effect of over 50% in size
Sequence of UniProt P03372 (P03372 whole entry, looked up): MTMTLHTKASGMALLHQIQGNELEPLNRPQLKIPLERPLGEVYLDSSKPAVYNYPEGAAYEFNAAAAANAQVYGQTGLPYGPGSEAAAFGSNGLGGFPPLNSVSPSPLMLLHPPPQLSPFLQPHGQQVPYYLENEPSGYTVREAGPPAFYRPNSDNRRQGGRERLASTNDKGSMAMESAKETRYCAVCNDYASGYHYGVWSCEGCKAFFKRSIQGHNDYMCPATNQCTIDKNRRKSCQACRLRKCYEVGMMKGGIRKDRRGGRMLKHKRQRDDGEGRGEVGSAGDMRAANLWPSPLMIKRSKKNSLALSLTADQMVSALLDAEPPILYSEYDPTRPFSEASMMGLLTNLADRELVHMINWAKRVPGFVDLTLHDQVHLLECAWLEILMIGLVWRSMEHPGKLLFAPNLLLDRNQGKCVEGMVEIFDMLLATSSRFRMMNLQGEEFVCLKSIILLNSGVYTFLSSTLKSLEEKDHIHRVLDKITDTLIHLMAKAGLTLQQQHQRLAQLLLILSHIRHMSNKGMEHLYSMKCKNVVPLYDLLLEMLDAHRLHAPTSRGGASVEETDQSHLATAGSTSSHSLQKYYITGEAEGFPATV
Method in brief: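 Luciferase luminescence (ONE-Glo, 30 min at room temperature) was read after 22 hr at 37C exposure to compounds plus 17beta-estradiol at 0.1 nM final. Cells were VM7Luc4E2 with endogenous ER-alpha and an ERE-driven luciferase, pre-cultured 5 days in hormone-depleted medium.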

[5] = qHTS assay to identify small molecule agonists of the sonic hedgehog signaling (Shh) pathway - cell viability counter screen (AID 1259366); further: potency means the concentration at half of the fitted maximal effect; nearly all actives have a fitted effect of over 50% in size
Method in brief: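 Compounds in DMSO were pin-transferred onto 3T3 Gli1-Luc cells that had settled 4hr; plates then stood 24hr at 37C and 5% CO2. One hour before the end, CellTiter-Fluor was added and fluorescence recorded.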

[6] = qHTS assay to identify small molecule antagonists of the sonic hedgehog signaling (Shh) pathway - cell viability counter screen (AID 1259367); further: nearly all actives have a fitted effect of over 55% in size; further: potency means the concentration at half of the fitted maximal effect
Method in brief: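 Viability was read by CellTiter-Fluor fluorescence in the same wells, reagent added 23 hr into compound treatment and incubated 1 hr at 37C. The 3T3 Gli1-Luc reporter cells (2,000/well) received conditioned medium after compound and ran 24 hr.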

[7] = target: Estrogen receptor beta (Homo sapiens) (UniProt Q92731); assay: qHTS assay to identify small molecule agonists of the estrogen receptor beta (ER-beta) signaling pathway (AID 1259377; active means well fitted activation curve with a large enough effect in the signal ratio in the repeat runs, not every such curve was filed as active; inconclusive means weak or mixed curves, or effect the other way; the % refers to the signal ratio; further: potency means the concentration at half of the fitted maximal effect; on activation: on the % scale 0 is the no-effect control and ±100 the full control effect); conditions: ER-beta-UAS-bla HEK293T, beta-lactamase FRET ratio, 16 h; activation: at 92.4 µM (top of the series) unless noted
Sequence of UniProt Q92731 (Q92731 whole entry, looked up): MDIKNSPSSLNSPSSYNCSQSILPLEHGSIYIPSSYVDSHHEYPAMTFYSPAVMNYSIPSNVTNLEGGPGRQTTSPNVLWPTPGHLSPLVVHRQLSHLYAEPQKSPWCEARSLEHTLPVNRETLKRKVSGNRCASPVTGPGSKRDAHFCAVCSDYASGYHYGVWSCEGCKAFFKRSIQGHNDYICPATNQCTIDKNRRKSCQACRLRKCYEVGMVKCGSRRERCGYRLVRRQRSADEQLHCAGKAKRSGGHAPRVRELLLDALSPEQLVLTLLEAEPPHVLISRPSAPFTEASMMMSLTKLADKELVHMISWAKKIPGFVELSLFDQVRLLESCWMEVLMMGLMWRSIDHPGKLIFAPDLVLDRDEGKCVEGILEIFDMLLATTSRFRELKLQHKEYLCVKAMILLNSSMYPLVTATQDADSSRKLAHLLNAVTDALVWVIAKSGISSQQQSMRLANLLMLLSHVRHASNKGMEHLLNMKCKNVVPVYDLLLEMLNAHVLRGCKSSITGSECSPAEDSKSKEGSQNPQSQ
Method in brief: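 qHTS in ER-beta-UAS-bla HEK293T cells: 6 hr settling, then 16 hr compound at 37C, then LiveBLAzer substrate 2 h at RT before fluorescence reading.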

[8] = target: Androgen receptor (Homo sapiens) (UniProt P10275); assay: qHTS assay to identify small molecule antagonists of the androgen receptor (AR) signaling pathway using the MDA cell line in the presence of 0.5 nM R1881 (AID 1259243); further: nearly all actives have a fitted effect of over 50% in size; further: potency means the concentration at half of the fitted maximal effect; on activity, negative = inhibition: on the % scale 0 is the no-effect control and ±100 the full control effect
Sequence of UniProt P10275 (P10275 whole entry, looked up): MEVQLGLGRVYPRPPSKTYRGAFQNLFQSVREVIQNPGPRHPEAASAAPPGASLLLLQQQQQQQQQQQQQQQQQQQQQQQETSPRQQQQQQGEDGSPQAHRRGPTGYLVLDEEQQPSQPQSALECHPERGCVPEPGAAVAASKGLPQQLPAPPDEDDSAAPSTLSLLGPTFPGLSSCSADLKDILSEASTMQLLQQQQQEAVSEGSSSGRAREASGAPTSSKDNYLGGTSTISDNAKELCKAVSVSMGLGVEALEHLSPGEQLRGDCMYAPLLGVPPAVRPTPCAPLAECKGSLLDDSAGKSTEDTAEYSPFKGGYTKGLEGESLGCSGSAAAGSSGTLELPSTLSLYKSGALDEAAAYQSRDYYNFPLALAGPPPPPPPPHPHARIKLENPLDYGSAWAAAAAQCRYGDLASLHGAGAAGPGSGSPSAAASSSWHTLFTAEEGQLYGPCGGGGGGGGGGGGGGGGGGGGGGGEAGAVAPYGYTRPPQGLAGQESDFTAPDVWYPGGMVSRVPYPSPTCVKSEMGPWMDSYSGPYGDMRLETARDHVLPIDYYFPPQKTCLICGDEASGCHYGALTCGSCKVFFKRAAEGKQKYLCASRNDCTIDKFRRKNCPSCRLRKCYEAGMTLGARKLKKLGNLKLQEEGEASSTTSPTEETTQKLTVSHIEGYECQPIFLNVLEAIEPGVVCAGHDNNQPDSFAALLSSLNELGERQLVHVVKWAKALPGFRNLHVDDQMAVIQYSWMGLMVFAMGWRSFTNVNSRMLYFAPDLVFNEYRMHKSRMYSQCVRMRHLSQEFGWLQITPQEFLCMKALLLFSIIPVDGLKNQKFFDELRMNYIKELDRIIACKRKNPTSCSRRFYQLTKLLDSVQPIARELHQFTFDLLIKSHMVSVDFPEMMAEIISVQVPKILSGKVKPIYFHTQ
Method in brief: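 Luminescent reporter readout (ONE-Glo, 30 min, room temperature) after 16 hr co-treatment of MDA-kb2 cells with test compounds and 0.5 nM R1881 final, at 37C without CO2. The MMTV-driven luciferase responds to both AR and GR.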

[9] = qHTS assay to identify small molecule HDAC inhibitors (AID 1259364); further: nearly all actives have a fitted effect of over 45% in size; further: potency means the concentration at half of the fitted maximal effect
Method in brief: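 Luminescence read after 30 min room-temperature HDAC-Glo incubation measures cellular class I/II HDAC activity. Compounds were applied for 2 hr at 37 C to HCT-116 wild-type cells seeded the day before.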

[10] = qHTS RealTime-Glo MT Cell Viability Assay in HepG2 cells - 0 hour (AID 1224889); further: on the % scale 0 is the no-effect control and ±100 the full control effect; nearly all actives have a fitted effect of over 50% in size
Method in brief: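 Cells + NanoLuc/prosubstrate dispensed (600 cells/well) → 5 h at 37 C/5% CO2 → compounds in DMSO transferred → 40 h incubation at 37 C, luminescence read at 0, 8, 16, 24, 32, 40 h.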

[11] = target: Estrogen receptor beta (Homo sapiens) (UniProt Q92731); assay: qHTS assay to identify small molecule antagonists of the estrogen receptor beta (ER-beta) signaling pathway (AID 1259378; active means well fitted inhibition curve with a large enough effect in the signal ratio in the repeat runs, not every such curve was filed as active; inconclusive means weak or mixed curves, or effect the other way; inactive means no such curve, though single readings can be large or run the other way; the % refers to the signal ratio; further: potency means the concentration at half of the fitted maximal effect; on activity, negative = inhibition: on the % scale 0 is the no-effect control and ±100 the full control effect); conditions: ER-beta-UAS-bla HEK293T, beta-lactamase FRET ratio, 16 h; activity, negative = inhibition: at 92.4 µM (top of the series) unless noted
Method in brief: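 Antagonist mode: compounds added to beta-lactamase reporter HEK293T ER-beta-UAS cells stimulated with E2 (1nM final), 16 hr at 37C. LiveBLAzer B/G FRET substrate, 2 hours room temperature, fluorescence read-out.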

[12] = qHTS assay to identify small molecule agonists of the androgen receptor (AR) signaling pathway in the presence of an antagonist - cell viability counter screen (AID 1259379); further: nearly all actives have a fitted effect of over 25% in size; further: potency means the concentration at half of the fitted maximal effect
Method in brief: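 Cytotoxicity counter-screen run in the same wells as the nilutamide-challenged (3.0 µM final) AR agonist assay in MDA-kb2 cells. Compounds tested at 15 concentrations for 16 h, 37 °C without CO2; CellTiter-Fluor fluorescence read.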

[13] = qHTS assay to identify small molecule agonists of the sonic hedgehog signaling (Shh) pathway (AID 1259368; calls by dose curve; further: potency means the concentration at half of the fitted maximal effect; nearly all actives have a fitted effect of over 15% in size)
Method in brief: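 Luminescence was read after 30 min at room temperature with luciferase reagent. Before that, 3T3Gli1-Luc cells (NIH/3T3 clone, stable Gli1-Luc reporter; 2,000/well) were exposed to compounds for 24 hr at 37C, 5% CO2, compounds being added 4 hr post-plating.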

[14] = qHTS assay to identify small molecule phospholipidosis (PLD) inducers (AID 1259344; active means well fitted curve in the direction sought with a large enough effect; inconclusive means small, poorly fitted or top-dose-only effect, or another doubt; inactive means no such curve, though single readings can be large; an effect the other way counts as inactive or inconclusive; further: potency means the concentration at half of the fitted maximal effect)
Method in brief: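 Phospholipid accumulation was scored by imaging: fixed, Hoechst-counterstained HepG2 cells stained with LipidTOX Red after 24 h compound exposure at 37 C. Read-outs were pit count and pit intensity per well or per cell, with amiodarone and DMSO controls.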

[15] = A CellTox Green Cytotoxicity Assay to monitor cytotoxicity in HepG2 cells - 8 hour (AID 1224890); further: potency means the concentration at half of the fitted maximal effect; nearly all actives have a fitted effect of over 45% in size
Method in brief: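 Real-time cytotoxicity: fluorescence of a cell-impermeant cyanine dye binding DNA of dead HepG2 cells, measured repeatedly (0–40 h) during compound exposure at 37 C. Cells seeded 600/well with reagent, dosed after 5 h.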

[16] = qHTS assay to identify small molecule HDAC inhibitors - cell viability counter screen (AID 1259365); further: nearly all actives have a fitted effect of over 50% in size; further: potency means the concentration at half of the fitted maximal effect
Method in brief: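 HCT-116 wild-type, overnight attachment; 2hr drug exposure, 37C; CellTiter-Glo luminescent ATP readout after 30min RT.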
Tags describe the fitted curve by direction and shape or compound fluorescence and quenching.

O=C(Cc1ccccc1)OCCc1ccccc1
Potency [1]: inactive | Potency [2]: inactive

CCc1cccc(CC)c1N(COC)C(=O)CCl
Potency [3]: inactive | Potency [4]: inconclusive: 61.1 µM [inhibitor, single point] | Potency [5]: inconclusive: 74.5 µM [cytotoxic, single point] | Potency [6]: active: 59.1 µM and inconclusive: 54.5 µM [cytotoxic, partial curve] | Potency [2]: inconclusive: 13.7 µM [inhibitor] | Potency [7]: inconclusive: 59.1 µM [rising, partial curve] and inconclusive: 61.1 µM [rising, partial curve]

c1cc2c(c(N3CCNCC3)c1)OCCO2
Potency [8]: inactive | Potency [9]: inactive

CC(C)C(=O)OCC(C)(C)C(OC(=O)C(C)C)C(C)C (stereo not given)
Potency [10]: inactive | Potency [7]: active: 27.3 µM | activity, negative = inhibition [11]: inconclusive: 4.51% | Potency [12]: inactive

c1csc(-c2ccc(-c3cccs3)s2)c1
Potency [3]: inactive | Potency [9]: active: 5.45 µM | Potency [13]: active: 9.69 µM

CC(C)(C)c1cc(O)ccc1O
Potency [4]: inconclusive: 4.86 µM [inhibitor, partial curve] | Potency [14]: inactive | Potency [6]: inconclusive: 48.6 µM [cytotoxic, partial curve, poor fit]

Nc1nc(N)nc(NC2CC2)n1
Potency [15]: inconclusive: 26.8 µM [activator, single point] | activation [7]: inconclusive: 3.36%

Clc1cccc(Cl)c1
Potency [1]: inactive | Potency [7]: inconclusive: 68.1 µM [rising, partial curve, poor fit] | Potency [11]: inconclusive: 76.4 µM [inhibitor, single point]

CC1CCCC1
Potency [1]: inactive | Potency [12]: inconclusive: 53.6 µM [cytotoxic, partial curve]

COc1ccc(C=O)cc1O
Potency [1]: inactive | Potency [8]: inactive

COC[C@@H](NC(C)=O)C(=O)NCc1ccccc1
Potency [8]: inactive | Potency [6]: inactive | Potency [2]: inactive

COc1cc(OC)c(OC)cc1C=O
Potency [15]: inconclusive: 59.8 µM [activator, single point] | Potency [1]: inconclusive: 66.5 µM [cytotoxic, partial curve, poor fit] | Potency [8]: inconclusive: 42 µM [inhibitor, partial curve] | Potency [4]: active: 59.3 µM | Potency [14]: inconclusive: 31.6 µM [activator, single point] | Potency [2]: active: 13.3 µM | activation [7]: inconclusive: 4.54%

NNC(=O)c1ccccc1
Potency [1]: inconclusive: 70.5 µM [cytotoxic, single point] | Potency [9]: inconclusive: 62.8 µM [inhibitor, partial curve] | Potency [2]: active: 31.5 µM

CC(C)c1ccc(CO)cc1
Potency [2]: inactive

Nc1c(Cl)c(Cl)nc(C(=O)O)c1Cl
Potency [4]: inconclusive: 19.9 µM [inhibitor, partial curve, poor fit] | activity, negative = inhibition [11]: inconclusive: -37.6%

C[C@]12CC[C@H](O)CC1=CC[C@@H]1[C@@H]2CC[C@]2(C)C(=O)CC[C@@H]12
Potency [14]: active: 10 µM | Potency [2]: inconclusive: 21.1 µM [inhibitor, partial curve, poor fit] | Potency [7]: active: 386 nM and active: 473 nM

N#Cc1c2ccccc2cc2ccccc12
Potency [6]: inconclusive: 38.5 µM [rising, partial curve, poor fit] | Potency [7]: active: 21.6 µM | Potency [11]: inconclusive: 24.3 µM [activator, partial curve] | Potency [12]: inconclusive: 38.5 µM [rising, partial curve]

O=C(N[C@H]1N=C(c2ccccc2F)c2cccc3c2N(CC3)C1=O)c1cc2ccccc2[nH]1
Potency [2]: inconclusive: 33.5 µM [inhibitor, single point]

CN(C)[C@@H]1C(=O)C(C(N)=O)=C(O)[C@@]2(O)C(=O)C3=C(O)c4c(O)cccc4[C@@](C)(O)[C@H]3C[C@@H]12
Potency [5]: inconclusive: 48.7 µM [rising, partial curve] | Potency [2]: inactive | Potency [7]: inconclusive: 68.8 µM

Nc1ccccc1-c1ccccc1
Potency [9]: inconclusive: 60.8 µM [inhibitor, single point] | Potency [7]: inactive | Potency [11]: inactive

O=[N+]([O-])c1cccc(O)c1
Potency [16]: inactive | Potency [7]: inconclusive: 68.8 µM [activator, single point]

CCOP(=S)(OCC)Oc1cc(C)nc(C(C)C)n1
Potency [2]: inactive

CN(C)CCc1c[nH]c2ccccc12
Potency [9]: inactive | Potency [6]: inconclusive: 121 µM [cytotoxic, single point]

c1ccc(OCC2CO2)cc1 (stereo not given)
Potency [6]: inactive

C[C@@H]1O[C@@H](O[C@H]2C[C@@H](O)[C@]3(CO)[C@H]4[C@H](O)C[C@]5(C)[C@@H](C6=CC(=O)OC6)CC[C@]5(O)[C@@H]4CC[C@]3(O)C2)[C@H](O)[C@H](O)[C@H]1O
Potency [14]: inconclusive: 1 µM [activator, partial curve] | Potency [11]: inconclusive: 1.46 µM [fluorescent, full curve] and inconclusive: 1.88 µM [fluorescent, full curve]

CCN(CC)CCOC(=O)C(C)(c1ccccc1)c1ccccc1
Potency [14]: inconclusive: 14.1 µM [activator, partial curve, poor fit] | activity, negative = inhibition [11]: inconclusive: -28.9% [at 42.5 µM]

CC(C)[C@H](C(=O)OC(C#N)c1cccc(Oc2ccccc2)c1)c1ccc(OC(F)F)cc1 (stereo not given in full)
Potency [2]: inactive

NNC(=S)NN
Potency [5]: inconclusive: 62.8 µM [cytotoxic, single point] and inconclusive: 68.6 µM [cytotoxic, single point] | Potency [11]: inconclusive: 70.5 µM [inhibitor, single point] and inconclusive: 54.5 µM [inhibitor] | Potency [12]: inactive

CCOc1ccc(C(C)(C)COCc2cccc(Oc3ccccc3)c2)cc1
Potency [5]: inconclusive: 61.1 µM [rising, partial curve, poor fit] | Potency [2]: inactive

COP(=S)(NC(C)C)Oc1ccc(C)cc1[N+](=O)[O-] (stereo not given)
Potency [4]: active: 17.2 µM | Potency [7]: inactive | Potency [11]: active: 30.6 µM

[CH3][Sn]([CH3])([Cl])[Cl]
Potency [6]: inconclusive: 69.7 µM [cytotoxic, single point] | Potency [13]: active: 7.82 µM and active: 24.3 µM | Potency [2]: inconclusive: 6.97 µM [inhibitor, partial curve, poor fit]

NNC(N)=S
Potency [5]: inconclusive: 77 µM [cytotoxic, single point] | activation [7]: inconclusive: -13% | Potency [11]: active: 11.3 µM and active: 30.6 µM

C=CC1(C)OC(=O)N(c2cc(Cl)cc(Cl)c2)C1=O (stereo not given)
Potency [4]: inconclusive: 68.2 µM [inhibitor, single point] | Potency [6]: active: 54.2 µM | Potency [7]: inconclusive: 60.8 µM [rising, partial curve] | Potency [11]: inconclusive: 68.2 µM

O=C(O)COc1ccc(Cl)cc1
Potency [2]: inactive

O=C/C(Cl)=C(/Cl)C(=O)O
Potency [16]: inconclusive: 54.5 µM [rising, partial curve, poor fit] | Potency [6]: inconclusive: 54.4 µM [cytotoxic, partial curve] and inconclusive: 61.1 µM [cytotoxic] | Potency [2]: inconclusive: 27.3 µM [inhibitor, partial curve, poor fit]

Sc1ccccc1
Potency [4]: inconclusive: 62 µM [inhibitor, partial curve] | Potency [2]: inconclusive: 55.3 µM [inhibitor, partial curve, poor fit] and inconclusive: 2.74 µM [inhibitor, single point] | Potency [12]: inconclusive: 69.6 µM [cytotoxic, single point]
